{"source": "PubChem BioAssay AID588855", "about": "(National Center for Advancing Translational Sciences (NCATS), 2011)", "note": "About 5,000 (1.2%) of roughly 410,000 compounds were called active. Inconclusive results, whose numbers are uncertain, are shown with a selection of clear calls. Calls come from the whole dose curve; as a rule, active = well fitted inhibition curve with a large enough effect; inconclusive = small, poorly fitted or top-dose-only effect; inactive = no such curve, though single readings can be large or run the other way. Where the call is inconclusive, the potency comes from a doubtful curve fit. Potency is the fitted concentration of half-maximal effect; tags give direction and shape of the fitted curve.", "data": [{"assay": "qHTS for Inhibitors of TGF-b; note: nearly all actives have a fitted effect of over 65% in size", "conditions": "HepG2 CAGA-GFP TGF-b/SMAD3 reporter, GFP fluorescence, 18 h, TGF-beta stimulated, 500 pg/mL final; series mostly up to 46.1 µM", "outline": "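HEPG2 CAGA-GFP reporter cells (1000/well, DMEM with 1% FBS) received compounds, then recombinant TGF-beta at 500 pg/mL final for 18 hours at 37 degrees C. Per-cell GFP summed per well was normalised to unstimulated and stimulated DMSO controls before curve fitting.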", "values": [{"compound": "COc1ccc(CNC(=O)N2CCN(c3ccccc3)CC2)cc1", "Potency": "inconclusive: 4.47 µM [inhibitor, single point]"}, {"compound": "COc1cccc(CCNC(=O)c2c(O)nc3c(C)cccn3c2=O)c1", "Potency": "inactive"}, {"compound": "CC(C)(C)S(=O)N1Cc2cc(C(=O)Nc3ccc(-c4ccccc4)cc3)nc(-c3cccc(-c4cc5ccccc5o4)c3)c2[C@@H]1CCO", "note": "(stereo partly drawn)", "Potency": "inconclusive: 35.5 µM [inhibitor, single point]"}, {"compound": "COc1ccc(C(CNC(=O)Cc2ccccc2)N2CCCCC2)cc1", "note": "(stereo not drawn)", "Potency": "inactive"}, {"compound": "Cc1ccc(NC(=O)C(Cc2ccccc2)NS(=O)(=O)c2ccc3c(c2)c(=O)n(C)c(=O)n3C)c(C)c1", "note": "(stereo not drawn)", "Potency": "inconclusive: 22.4 µM [inhibitor, single point]"}, {"compound": "Cc1cc(C(=O)N2CCN(c3ccccc3Cl)CC2)c(C)o1", "Potency": "inactive"}, {"compound": "CCOC(=O)c1ccc(NC(=O)Nc2ccn(C)n2)cc1", "Potency": "inactive"}, {"compound": "CCCCn1nnnc1C(C1CC1)N1CCN(C/C=C/c2ccccc2)CC1", "note": "(stereo not drawn)", "Potency": "inconclusive: 35.5 µM [inhibitor, partial curve, poor fit]"}, {"compound": "CCCCn1c(N)c(N(CC(C)C)C(=O)COc2cc(C)ccc2Cl)c(=O)[nH]c1=O", "Potency": "inactive"}, {"compound": "CCOc1ccc(S(=O)(=O)N(CC(=O)NCC2CCCO2)c2ccc(F)cc2)cc1", "note": "(stereo not drawn)", "Potency": "inactive"}, {"compound": "COC(=O)Cc1ccc(NC(C)=O)cc1", "Potency": "inactive"}, {"compound": "CCN(CC)c1ccc(NC(=O)c2cccn2-c2nnc(N3CCCCC3)s2)c(C)c1", "Potency": "inconclusive: 6.31 µM [inhibitor, full curve, poor fit]"}, {"compound": "O=C(Nc1ccncc1)Nc1ccc(Br)cc1Cl", "Potency": "inconclusive: 5.62 µM [inhibitor, full curve]"}, {"compound": "COc1ccc(N2CCN(C(=O)COC(=O)c3cnccn3)CC2)cc1", "Potency": "inconclusive: 11.2 µM [inhibitor, partial curve, poor fit]"}, {"compound": "Cc1nc(C(=O)Nc2ccc(Cl)cc2)sc1C1(C)CC(c2ccccc2)=NO1", "note": "(stereo not drawn)", "Potency": "inconclusive: 35.5 µM [inhibitor, single point]"}, {"compound": "CC(=O)c1ccc(NC(=S)NC(=O)/C=C/c2ccccc2)cc1", "Potency": "inactive"}, {"compound": "Cc1nnc(SCC(=O)Nc2ccccc2N2CCOCC2)s1", "Potency": "inconclusive: 25.1 µM [inhibitor, single point]"}, {"compound": "COc1ccc(C)cc1NC(=O)NNC(=O)c1cc2ccccc2cc1O", "Potency": "inconclusive: 28.2 µM [inhibitor, single point]"}, {"compound": "CCN(C(=O)c1cnc(NC(C)C)cc1C(F)(F)F)c1ccc(Cl)cc1", "Potency": "inconclusive: 2.82 µM [inhibitor, full curve]"}, {"compound": "O=[N+]([O-])c1ccc(Cl)cc1P(=O)(O)c1cc(Cl)ccc1[N+](=O)[O-]", "Potency": "inconclusive: 0.112 µM [inhibitor, partial curve, poor fit]"}, {"compound": "Cc1ccc(S(=O)(=O)N2CCN(C(=O)c3cc(-c4ccc(Br)cc4)n[nH]3)CC2)c(C)c1", "Potency": "inconclusive: 3.55 µM [inhibitor, single point]"}, {"compound": "CCOc1ccccc1OCCC(=O)Nc1ccc(F)c(Cl)c1", "Potency": "inconclusive: 35.5 µM [inhibitor, partial curve, poor fit]"}, {"compound": "O=C(O)C1=C[C@H](c2ccc(F)cc2)C[C@H](OCc2ccc(CO)cc2)O1", "Potency": "inactive"}, {"compound": "CCCCn1c(C2CCCCC2)nc2cc3[nH]c(=O)c(C(C)C)nc3cc21", "Potency": "inconclusive: 35.5 µM [inhibitor, single point]"}, {"compound": "C=CCOC(=O)C1=C[C@@H](c2csc3ccccc23)C[C@@H](OCc2ccc(CO)cc2)O1", "Potency": "inconclusive: 35.5 µM [inhibitor, single point]"}, {"compound": "CCCOc1ccc(NC(=O)CC2C(=O)N(c3ccccc3)C(=O)N2Cc2ccco2)cc1", "note": "(stereo not drawn)", "Potency": "inconclusive: 11.2 µM [inhibitor, single point]"}, {"compound": "CCOc1ccc2[nH]c(=O)c(CN(CCCN3CCOCC3)Cc3nnnn3Cc3ccc(OC)cc3)cc2c1", "Potency": "inconclusive: 0.794 µM [inhibitor, full curve, poor fit]"}, {"compound": "COc1cccc(NC(=O)CCC(=O)N2Cc3ccccc3Oc3ncccc32)c1", "Potency": "inactive"}, {"compound": "Cc1ccc(C(=O)NCCC(=O)NCc2ccco2)cc1", "Potency": "inactive"}, {"compound": "CC1Cc2ccccc2N1C(=S)NC(=O)c1ccc(Cl)cc1Cl", "note": "(stereo not drawn)", "Potency": "inconclusive: 10 µM [inhibitor, partial curve]"}, {"compound": "CCCOc1ccc(CNC(=O)CCCn2ncn3c(cc4sc(CC)cc43)c2=O)cc1", "Potency": "inconclusive: 20 µM [inhibitor, single point]"}, {"compound": "COc1ccccc1CNC(=O)c1c[nH]c2ccc(S(=O)(=O)Nc3cc(C)cc(C)c3)cc2c1=O", "Potency": "inconclusive: 22.4 µM [inhibitor, single point]"}, {"compound": "Cc1ccc(N2C(=O)[C@@H]3[C@H](C2=O)C2CCCN2[C@@H]3C(=O)c2ccccc2)cc1", "note": "(stereo partly drawn)", "Potency": "inconclusive: 35.5 µM [inhibitor, single point]"}, {"compound": "Cc1nc(Nc2cnc(/C=C/c3cc(C(=O)Nc4cccc(C(F)(F)F)c4)ccc3C)cn2)cc(N2CCNCC2)n1", "Potency": "inconclusive: 35.5 µM [inhibitor, single point]"}, {"compound": "COc1ccccc1OCC(=O)Nc1ccc(O)cc1C(=O)O", "Potency": "inactive"}, {"compound": "COc1ccc([C@H]2CC(=O)C=C(c3cc(Cl)ccc3OC)C2)cc1", "Potency": "inconclusive: 7.94 µM [inhibitor, partial curve, poor fit]"}, {"compound": "Cc1ccc(-c2nc(Nc3ccc(O)cc3)c3ccccc3n2)cc1", "Potency": "inconclusive: 35.5 µM [inhibitor, single point]"}, {"compound": "Cc1nn(-c2ccccc2)c2sc(C(=O)Nc3cccc(O)c3)cc12", "Potency": "inconclusive: 28.2 µM [inhibitor, single point]"}, {"compound": "C[C@@H]1[C@H](c2ccccc2)OCCS(=O)(=O)N1Cc1cccc(Cl)c1", "Potency": "inconclusive: 11.2 µM [inhibitor, single point]"}, {"compound": "COc1ccc(CCNC(=O)CCCn2nc(C)c3sc4ccccc4c3c2=O)cc1OC", "Potency": "inconclusive: 5.62 µM [inhibitor, single point]"}, {"compound": "CCN(c1ccccc1)S(=O)(=O)c1ccc(N2CCN(c3ccc(O)cc3)CC2)nc1", "Potency": "inconclusive: 12.6 µM [inhibitor, partial curve, poor fit]"}, {"compound": "O=C(NC1CCCN(c2ccc(C(F)(F)F)cn2)C1)c1cc(Cl)ccc1F", "note": "(stereo not drawn)", "Potency": "inconclusive: 35.5 µM [inhibitor, single point]"}, {"compound": "COc1ccc2sc(-c3ccc(SC)cc3)c(C#CC(C)(C)O)c2c1", "Potency": "inconclusive: 12.6 µM [inhibitor, partial curve, poor fit]"}, {"compound": "FC(F)(F)c1cc(-c2cccs2)nc2cc(-c3cccs3)nn12", "Potency": "inconclusive: 11.2 µM [inhibitor, partial curve]"}, {"compound": "O=C(Nc1cc(Cl)cc(Cl)c1)c1ccc(F)c(S(=O)(=O)NCc2ccccc2Cl)c1", "Potency": "inconclusive: 17.8 µM [inhibitor, partial curve, poor fit]"}, {"compound": "CCOc1ccc(NS(=O)(=O)c2ccc3nc(-c4ccccc4)[nH]c3c2)cc1", "Potency": "inconclusive: 20 µM [inhibitor, single point]"}, {"compound": "COc1cc(OC)c(Nc2c3c(nc4nc(-c5cccs5)nn24)CCCC3)cc1Cl", "Potency": "inconclusive: 20 µM [inhibitor, single point]"}, {"compound": "COC(=O)/C=C(\\C)N=Nc1c(O)[nH]c2ccccc12", "Potency": "inconclusive: 7.94 µM [inhibitor, partial curve]"}, {"compound": "COc1ccc(S(=O)(=O)N(C)C[C@H]2Oc3c(NC(=O)Nc4ccccc4)cccc3C(=O)N([C@H](C)CO)C[C@@H]2C)cc1", "Potency": "inconclusive: 25.1 µM [inhibitor, partial curve, poor fit]"}, {"compound": "CCOC(=O)CCS(=O)(=O)c1nc(-c2ccccc2)cc(C(F)(F)F)n1", "Potency": "inconclusive: 8.91 µM [inhibitor, partial curve, poor fit]"}, {"compound": "COc1ccc(N(C)S(=O)(=O)c2cccc(C(=O)NCc3ccc(C)cc3)c2)cc1", "Potency": "inconclusive: 35.5 µM [inhibitor, single point]"}, {"compound": "Cc1cc(C)c2oc(-c3ccc(C)c(NC(=S)NC(=O)c4cccs4)c3)nc2c1", "Potency": "inconclusive: 4.47 µM [inhibitor, single point]"}, {"compound": "O=S(=O)(Nc1ccccc1)c1ccc(Oc2ncc(C(F)(F)F)cc2Cl)cc1", "Potency": "inconclusive: 12.6 µM [inhibitor, partial curve, poor fit]"}, {"compound": "CC1(C(=O)Nc2ncc(Cc3ccc(Br)cc3)s2)Cc2ccccc2C(=O)O1", "note": "(stereo not drawn)", "Potency": "inconclusive: 31.6 µM [inhibitor, single point]"}, {"compound": "Cc1ccc(S(=O)(=O)N2CCN(C(=O)CSC3CCCC3)CC2)c(C)c1", "Potency": "inactive"}, {"compound": "COc1ccc(S(=O)(=O)Nc2cccc(-c3ccc(N4CCCCCC4)nn3)c2)c(OC)c1", "Potency": "inconclusive: 22.4 µM [inhibitor, single point]"}, {"compound": "Cc1cnc(NC(=O)CSc2nnc(COc3ccccc3)o2)s1", "Potency": "inconclusive: 3.98 µM [inhibitor, single point]"}, {"compound": "CC(=O)N1CCN(C(=O)CNc2cc(C(F)(F)F)ccc2OCC(F)(F)F)CC1", "Potency": "inactive"}, {"compound": "COCCN(Cc1ccco1)C(=O)Cn1ncc2c(=O)oc3ccccc3c21", "Potency": "inactive"}, {"compound": "Cc1cc(C)c2nc(NC(=O)c3ccc([N+](=O)[O-])o3)sc2c1", "Potency": "inactive"}, {"compound": "CN(C(=O)c1cccc(NC(=O)Cc2ccc([N+](=O)[O-])cc2)c1)C1CCCC1", "Potency": "inconclusive: 10 µM [inhibitor, partial curve]"}, {"compound": "COc1cc(OC)c(NC(=O)c2c3c(nn2C)-c2ccccc2SC3)cc1Cl", "Potency": "inactive"}, {"compound": "Cc1ccc2nc(Cl)c3cc(C(=O)N(CCN(C)C)Cc4ccco4)sc3c2c1", "Potency": "inconclusive: 35.5 µM [inhibitor, single point]"}]}]}
